Patent US20230416360A1 (SIMCERE ZAIMING PHARMACEUTICAL, published 2023)

T1: human CD22 domain5-7-His (human, UniProt P20273 414-687)
T1 construct: Proximal end of membrane fragment; also called hCD22 domain5-7-His; not shown: His tag
T1 sequence: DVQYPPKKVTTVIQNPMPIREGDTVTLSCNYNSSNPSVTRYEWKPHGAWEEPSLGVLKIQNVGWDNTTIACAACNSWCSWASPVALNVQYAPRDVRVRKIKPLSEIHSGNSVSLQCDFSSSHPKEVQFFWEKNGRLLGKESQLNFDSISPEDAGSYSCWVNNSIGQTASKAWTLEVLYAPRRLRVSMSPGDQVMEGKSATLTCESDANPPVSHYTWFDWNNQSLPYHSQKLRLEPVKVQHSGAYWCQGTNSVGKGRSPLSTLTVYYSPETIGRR

T2: murine CD22-ECD-His (mouse, UniProt P35329 22-708)
T2 construct: extracellular domain; Bought; also called mouse CD22; murine CD22 protein
T2 sequence (looked up): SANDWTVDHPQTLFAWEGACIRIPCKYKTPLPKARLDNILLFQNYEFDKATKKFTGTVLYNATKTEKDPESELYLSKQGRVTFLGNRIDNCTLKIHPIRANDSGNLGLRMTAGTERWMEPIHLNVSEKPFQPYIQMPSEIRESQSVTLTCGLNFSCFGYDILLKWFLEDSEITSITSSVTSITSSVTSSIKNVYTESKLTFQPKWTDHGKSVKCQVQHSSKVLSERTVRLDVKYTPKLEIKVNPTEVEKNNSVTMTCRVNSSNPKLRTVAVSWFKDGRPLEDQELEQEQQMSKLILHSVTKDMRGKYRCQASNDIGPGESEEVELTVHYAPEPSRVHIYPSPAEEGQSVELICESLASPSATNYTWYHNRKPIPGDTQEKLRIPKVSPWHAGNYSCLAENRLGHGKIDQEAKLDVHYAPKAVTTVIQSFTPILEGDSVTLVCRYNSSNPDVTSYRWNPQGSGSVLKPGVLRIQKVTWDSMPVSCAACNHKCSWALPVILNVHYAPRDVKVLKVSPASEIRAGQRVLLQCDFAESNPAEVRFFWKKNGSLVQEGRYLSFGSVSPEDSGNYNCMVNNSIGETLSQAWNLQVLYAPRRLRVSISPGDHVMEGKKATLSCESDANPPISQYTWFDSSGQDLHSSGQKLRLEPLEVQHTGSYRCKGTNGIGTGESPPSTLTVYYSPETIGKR


Assays:
human CD22 domain5-7-His [1] = molecular target: T1, human CD22 domain5-7-His; experiment: ELISA on coated human CD22 domain5-7-His, bottom panel
human CD22 domain5-7-His [2] = molecular target: T1, human CD22 domain5-7-His; experiment: ELISA on coated human CD22 domain5-7-His, middle panel
murine CD22-ECD-His = molecular target: T2, murine CD22-ECD-His; experiment: ELISA on coated murine CD22-ECD-His, upper panel
Method: The plate was sealed with plastic film and incubated overnight at 4° C., the plate was washed 2 times with PBS the next day, and then a blocking solution [PBS+2% (w/w) BSA] was added for blocking at room temperature for 2 hours. […] After incubation at 37° C. for 2 hours, the plate was washed 3 times with PBS. HRP (horseradish peroxidase)-labeled secondary antibody (purchased from Sigma, catalog number: A0170) was added, and incubated at 37° C. for 2 hours, and the plate was washed 5 times with PBS. TMB substrate was added at 50 μl/well, and incubated at room temperature for 30 minutes, then a stop solution (1.0 N HCl) was added at 50 μl/well.

human CD22 domain5-7-His [3] = molecular target: T1, human CD22 domain5-7-His; experiment: ELISA on coated human CD22 domain5-7-His, top panel

Binder | binding result (human CD22 domain5-7-His [2]) | binding result (murine CD22-ECD-His) | binding result (human CD22 domain5-7-His [3]) | other results
S002-NB150-159n VHH-Fc (Fc fusion, VHH cloned into vector BI3.4-huIgG1 (hinge and human IgG1 Fc), made in HEK293E; also called S002-NB150-15911) QVQLVESGGGLVQAGDSLRLACEASGRTATISTMGWFRQAPGKEREFVGRIDWSAESTYIVDSVKGRFIISRDNAKNAGYLQMNSLKPVDTAVYYCAAIVVRERSYKYWGQGTQVTVSS[human IgG1 Fc with changes cut from this listing] | – | – | – | EC50 (read off the curve) (human CD22 domain5-7-His [1]): ~400 pM
S002-NB151-64 VHH-Fc (Fc fusion, VHH cloned into vector BI3.4-huIgG1 (hinge and human IgG1 Fc), made in HEK293E; also called 5002-NB151-64) QVQLVESGGGLVQPGGSLTLSCAASGFDFSFYTMTWVRQAQGKGLEWVSTISTGGGGSNYADSVKGRFTISRDNAKKTLYLQMTSLKPEDTAVYYCASHRRGYMFVSSRKNEYDYWGRGTQVTVSS[human IgG1 Fc with changes cut from this listing] | – | – | – | binding result (human CD22 domain5-7-His [1]): no binding (tested: 100 nM)
S002-NB151-30 VHH-Fc (Fc fusion, VHH cloned into vector BI3.4-huIgG1 (hinge and human IgG1 Fc), made in HEK293E; also called 5002-NB151-30) QVQLVESGGGLVQAGGSLRLSCAASGRASGSGAMGWFRQAPGQERRFVAGIEWSSGGPVYADSVKGRFTLSRDNAKNTVHLQMNSLKPEDTAVYYCAAAPWVFSSPDDYMYWGQGTQVTVSS[human IgG1 Fc with changes cut from this listing] | – | no binding (tested: 100 nM) | no binding (tested: 100 nM) | –
S002-NB151-2 VHH-Fc (Fc fusion, VHH cloned into vector BI3.4-huIgG1 (hinge and human IgG1 Fc), made in HEK293E; also called 5002-NB151-2) QVQLVESGGGLVQAGDSLRLSCAASGRTFSPSTMAWFRQAPGKERELVARIGWTYGDTYYVDSAKGRFTISMDNVKNTVYLQMNSLKPEDTAVYYCAALFRGGLSYNFSNRGTQVTVSS[human IgG1 Fc with changes cut from this listing] | – | – | – | EC50 (read off the curve) (human CD22 domain5-7-His [2]): ~100 pM
S002-NB150-5 VHH-Fc (Fc fusion, VHH cloned into vector BI3.4-huIgG1 (hinge and human IgG1 Fc), made in HEK293E; also called 5002-NB150-5) QLQLVESGGGLVQAGGSLRLSCVGSGDRVSIALMGWFRQAPGKEREFVAAISPSGGRITYSDSVKGRFTISRDNAKNTVYLQMNSLKRDDTAVYVCAANFRGYLSSSRGSDYAYWGQGTQVTVSS[human IgG1 Fc with changes cut from this listing] | no binding (tested: 100 nM) | no binding (tested: 100 nM) | – | –
S002-NB151-36 VHH-Fc (Fc fusion, VHH cloned into vector BI3.4-huIgG1 (hinge and human IgG1 Fc), made in HEK293E; also called 5002-NB151-36) QVQLVESGGGLVQAGGSLRLSCAASGLTFSYYGMGWFRQAPGKEREFVAAINWSGTSTYYADSVKDRFTVSRDNAKNTAYLHMNNLKPEDTAVYYCAARKYSSSQAMGLPNDIDYWGQGTQVTVSS[human IgG1 Fc with changes cut from this listing] | – | – | – | binding result (human CD22 domain5-7-His [1]): no binding (tested: 100 nM)
S002-NB150-2 VHH-Fc (Fc fusion, VHH cloned into vector BI3.4-huIgG1 (hinge and human IgG1 Fc), made in HEK293E; also called 5002-NB150-2) QVQLVESGGGLVQPGGSLRLSCAASGSWFNIAMGWFRQAPGKEREFVAGIRWSDSKTYYADSVKGRFTISGDNAKNTTYLQMNSLKPEDTAVYYCAAQRYYRGSYNRQTNYDHWGQGTQVTVSS[human IgG1 Fc with changes cut from this listing] | no binding (tested: 100 nM) | no binding (tested: 100 nM) | – | –
S002-NB150-152n VHH-Fc (Fc fusion, VHH cloned into vector BI3.4-huIgG1 (hinge and human IgG1 Fc), made in HEK293E) EVQVVESGGGLVQTGGSLRLSCAASGRPFDWLTVGWFRQAPGKEREFVAAISQSGGRIFYSDSVKGRFTISRDNAKNTAFLQMNSLKPEDTAVYSCAAQMRGYSRAAYPDEYDYWGQGTQVTVSS[human IgG1 Fc with changes cut from this listing] | – | – | – | binding result (human CD22 domain5-7-His [1]): no binding (tested: 100 nM)
S002-NB151-92 VHH-Fc (Fc fusion, VHH cloned into vector BI3.4-huIgG1 (hinge and human IgG1 Fc), made in HEK293E; also called 5002-NB151-92) QVQLVESGGGLVQSGGSLRLSCAASGFTFSDYTMNWVRQAPGKGLEWVSEISSGGHFKSNADSVKDRFTISRDNAKNTLYLQMNSLKPEDTAVYFCAKCPRPSVYCRDYESTSLYRGQGTQVTVSS[human IgG1 Fc with changes cut from this listing] | – | – | – | EC50 (read off the curve) (human CD22 domain5-7-His [1]): ~300 pM
S002-NB151-23 VHH-Fc (Fc fusion, VHH cloned into vector BI3.4-huIgG1 (hinge and human IgG1 Fc), made in HEK293E; also called 5002-NB151-23) QVQLVESGGGLVQAGGSLTVSCTNSGRTLSTSTIAWFRQKPGKDSEFVAAIRWSGGMGWYADSVKGRFTISRDNAENTVSLQMNTLQPEDTAVYFCAVSTVPYYGSIYTRVGDYPYWGQGTQVTVSS[human IgG1 Fc with changes cut from this listing] | – | no binding (tested: 100 nM) | no binding (tested: 100 nM) | –
S002-NB150-40 VHH-Fc (Fc fusion, VHH cloned into vector BI3.4-huIgG1 (hinge and human IgG1 Fc), made in HEK293E; also called 5002-NB150-40) QVQLVESGGGLVQDGGSLRLSCAASGLTFSFYNMGWFRQAPGKEREFVAAISQSGLSTHYADSMKGRFTISRDNAKNTVYLQMNSLNPVDTAAYYCAAGRRGYLASTTNDYEYWGQGTQVTVSS[human IgG1 Fc with changes cut from this listing] | no binding (tested: 100 nM) | no binding (tested: 100 nM) | – | –

Continued, in another order:

binding result (human CD22 domain5-7-His [2]) | binding result (murine CD22-ECD-His) | binding result (human CD22 domain5-7-His [3]) | Binder | other results
no binding (tested: 100 nM) | – | – | S002-NB150-42 VHH-Fc (Fc fusion, VHH cloned into vector BI3.4-huIgG1 (hinge and human IgG1 Fc), made in HEK293E; also called 5002-NB150-42) QVQLVESGGGLVQAGDSLKLSCLASGITFSSYYMSWFRQAPGKEREFVAGVGRSGAPSHHADSVKGRFTISRDNAKSAVYLQMNSLQPEDTAVYFCAAKWMAASTTVADYWGQGTQVTVSS[human IgG1 Fc with changes cut from this listing] | –
no binding (tested: 100 nM) | – | – | S002-NB150-57 VHH-Fc (Fc fusion, VHH cloned into vector BI3.4-huIgG1 (hinge and human IgG1 Fc), made in HEK293E; also called 5002-NB150-57) QVQLVESGGGLVQAGDSLRLSCAVTGRAYSRSDMGWFRQAPGKEREIVAVITFGGGTDYADSVKGRFTISSEDTKNTLYLQMNSLQPEDTAVYYCAAGFRGSRWSTAARRKEDDYAFWGQGTQVTVSS[human IgG1 Fc with changes cut from this listing] | –
– | no binding (tested: 100 nM) | no binding (tested: 100 nM) | S002-NB151-66 VHH-Fc (Fc fusion, VHH cloned into vector BI3.4-huIgG1 (hinge and human IgG1 Fc), made in HEK293E) QVQLVESGGGLVQAGGSLRLACAASGDTVSIYYMGWFRQAPGKEREFVGALSASGQFTDHADSVKGRFTISRDDAQNTVFLHMNDLKPEDTAVYYCAVQRYGWVYRTDKTMYNYWGQGTQVTVSS[human IgG1 Fc with changes cut from this listing] | –
– | no binding (tested: 100 nM) | no binding (tested: 100 nM) | S002-NB151-82 VHH-Fc (Fc fusion, VHH cloned into vector BI3.4-huIgG1 (hinge and human IgG1 Fc), made in HEK293E; also called 5002-NB151-82) EVQVVESGGGLVQAGDSLRLSCTTSGRTFYGDYIAWFRQAPGKEREFVAAIAVRGRGTFYGDSVKGRFTISRDNAENTLSLQMNSLKPEDTAVYYCAADAGSYASRGFPVRETGRYDYWGQGTQVTVSS[human IgG1 Fc with changes cut from this listing] | –
– | no binding (tested: 100 nM) | no binding (tested: 100 nM) | S002-NB151-14 VHH-Fc (Fc fusion, VHH cloned into vector BI3.4-huIgG1 (hinge and human IgG1 Fc), made in HEK293E; also called 5002-NB151-14) QVQLVESGGGLVQAGGSLRLSCTTSGGTLSRITMGWFRQAPGKEREFVAAIKWGGSSTPYSDSVKGRFTISRDNAKNTVYLQMDRLVPEDTAVYYCAGGLRGPYSDSVTSSVQYNYWGQGTQVTVSS[human IgG1 Fc with changes cut from this listing] | –
